Data reported in PubChem BioAssay AID1346428 (National Center for Advancing Translational Sciences (NCATS), 2018).
Where “and” joins values, the source holds several entries; their conditions need not be identical. Identical values can stand only once. Hit rate of the full screen: of about 48,000 compounds, about 1,200 (2.5%) were called active. Roughly 2% stayed inconclusive and do not appear here.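 Rule for the calls: active = activation of at least 60% and not above a set upper limit (about 1 call in 100 departs from these limits); inconclusive = activation of 40% to 60%, or above that upper limit; inactive = activation under 40%.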 The list shows a part of the results.

Molecular target: Probable G-protein coupled receptor 32 (Homo sapiens) (UniProt O75388)
Test: qHTS for Agonists of Human Resolvin D1 Receptor DRV1; note: 0% is about no effect
Details: CHO-K1 GPR32 beta-arrestin PathHunter luminescence, 90 min; at 76.9 µM; stronger effect = higher value; zero percent set by DMSO-only wells
Procedure, shortened: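 Agonism was scored by beta-Gal fragment complementation (chemiluminescent read, 1 h detection at ambient temperature) reporting beta-arrestin binding to GPR32 in engineered CHO-K1 cells. Compound treatment lasted 90 min at 37 C, normalized to a DMSO basal control.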

UniProt O75388, sequence (O75388 whole entry, looked up): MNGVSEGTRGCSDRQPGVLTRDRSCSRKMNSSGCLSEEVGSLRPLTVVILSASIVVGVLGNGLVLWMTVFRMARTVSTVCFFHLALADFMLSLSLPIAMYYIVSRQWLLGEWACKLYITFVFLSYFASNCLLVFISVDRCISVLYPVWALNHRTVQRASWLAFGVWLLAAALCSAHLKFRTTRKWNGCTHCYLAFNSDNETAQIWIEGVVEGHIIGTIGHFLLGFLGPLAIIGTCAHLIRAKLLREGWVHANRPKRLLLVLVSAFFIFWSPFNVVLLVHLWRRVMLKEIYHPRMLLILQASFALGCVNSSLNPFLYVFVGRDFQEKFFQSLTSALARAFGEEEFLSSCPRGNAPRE

activation, inactive:
CCCCCN1C(C(=O)c2ccccc2)=C(NC(=O)c2ccccc2Cl)c2ccccc2S1(=O)=O -13.4%
CC(=O)c1ccc(N2CCN(S(=O)(=O)c3ccc(-c4cc(C)no4)s3)CC2)cc1 -1.75%
Cc1cc(C)c(S(=O)(=O)n2cnc(C)c2)c(C)c1 2.52%
COC(=O)c1c(NC(=O)COc2cc(C)ccc2C(C)C)sc2c1CCC(C)C2 (stereo not drawn) -5.02%
CCOC(=O)C1CCN(S(=O)(=O)c2ccc3c(c2)NC(=O)C(C)C(=O)N3)CC1 (stereo not drawn) 8.5%
CCOC(=O)c1ccc(NC(=O)CC2NCCNC2=O)cc1 (stereo not drawn) -26.5%
Cc1ccc2nc3c(cc(C(=O)NC4CCCCC4)c(=N)n3C(C)C)c(=O)n2c1 -4.43%
CCn1c2ccccc2c2cc(NC(=O)COc3ccc(C)c(C)c3)ccc21 -23.5%
COc1ccc(-c2nc3n(n2)C(=O)CC(c2ccc(Cl)cc2)S3)cc1 (stereo not drawn) -2.9%
CCC(C)NC(=O)C1CCC(CNS(=O)(=O)c2ccc(Cl)cc2)CC1 (stereo not drawn) -4.6%
Cc1ccc(-c2ccc(=O)n(CC(=O)NCc3ccc(F)cc3)n2)cc1 -19.5%
CC1=C(C(=O)Nc2ccccc2C)C(c2cccnc2)n2nc(SCc3ccccc3F)nc2N1 (stereo not drawn) 17.3%
N#Cc1cccc(NC(=O)C2CCN(c3ncccn3)CC2)c1 14.7%
Cc1cccc(NC(=O)CCn2nc(-c3ccccc3)c3ccccc3c2=O)c1 -22.6%
CCOc1cc(C(=O)Nc2ccc(-c3nc4ncccc4o3)cc2C)cc(OCC)c1OCC 6.77%
CCS(=O)(=O)CCSc1nc(-c2ccc(Br)cc2)cc(-c2ccccc2)c1C#N -0.132%
Cc1nn2c(-c3cccc(NC(=O)c4ccc(Cl)cc4)c3)nnc2c2ccccc12 29.2%
CCS(=O)(=O)N1CCc2cc(C(=O)Nc3cc(Cl)ccc3C)ccc21 21.5%
COc1ccc(-n2c(-c3ccco3)nc3c(cnn3-c3ccc(C)cc3)c2=O)cc1 -5.24%
CCn1c(=O)n(CC)c2cc(N3CCCCC3)c(NC(=O)Nc3cc(Cl)ccc3OC)cc21 -33.5%
CCOC(=O)c1c(C)[nH]c(CCC(=O)Nc2ccccc2C(=O)OC)c1C -20.7%
Cc1ccc(N2CCN(C(=O)c3cn(C)c4ccc(S(=O)(=O)N(C)C5CCCCC5)cc4c3=O)CC2C)cc1 (stereo not drawn) 21.7%
COc1ccc(CCNC(=O)CCS(=O)(=O)c2ccc3c(c2)oc(=O)n3C)cc1OC -11.8%
CCCCOCc1cc(CN2CCN(c3cccc(Cl)c3)CC2)c(O)c2ncccc12 10.6%
O=C(CSc1nnc(CNC(=O)c2c(F)cccc2Cl)o1)Nc1cccc(F)c1 4.75%
CCOc1ccc(C(=O)N2CCN(Cc3cc(=O)n4nc(-c5ccccc5Cl)sc4n3)CC2)cc1 -2.94%
O=C(Nc1ccc2nn(-c3ccccc3)nc2c1)c1ccc(-c2cccc(Cl)c2)o1 13.5%
CCOC(=O)[C@H](CCc1ccccc1)N[C@@H](C)C(=O)N(CC(=O)O)C1Cc2ccccc2C1 -6.94%
COc1ccccc1NC(=O)C1=C(C)Nc2nc(SCc3cc(C)ccc3C)nn2C1c1ccccc1 (stereo not drawn) -2.74%
O=C(c1cccs1)N1CCCc2cc(NS(=O)(=O)c3ccc(F)cc3)ccc21 -20.8%
CC(C)Cn1c(/C=C/c2ccc(F)cc2)nc2ccccc21 -41.1%
COCCCNC(=O)CCc1c(C)nc2cc(-c3ccc(Cl)cc3)nn2c1C 3.75%
O=C(c1ccc2c(=O)n(CCc3ccccc3)c(=O)[nH]c2c1)N1CCN(c2ccc(Cl)cc2)CC1 22.9%
COc1cc2nc(Cl)nc(N)c2cc1OC -0.114%
CCn1c(C)c(C)c2cc(C(=O)NCCc3ccc(C)cc3)ccc21 -29%
COc1ccc(CC(=O)Nc2sc3c(c2C(=O)Nc2c(C)cccc2C)CCCCC3)cc1 -5.37%
COc1ccc(NC(=O)CSC2=Nc3ccccc3C3=NC(CC(=O)NCc4ccc(F)cc4)C(=O)N23)cc1 (stereo not drawn) -22.7%
Cc1ccc(Cl)cc1NC(=O)C(=O)NCCc1sc(-c2ccc(F)cc2)nc1C -0.551%
CCc1ccc(-c2nn(CC(=O)NC3CCCCC3)c3c2cnc2ccc(OC)cc23)cc1 -6.94%
COc1cccc(NC(=O)/C(C#N)=C\c2cn(Cc3ccc(Cl)cc3)c3ccccc23)c1 5.05%
Cc1cccc(S(=O)(=O)c2cn(Cc3ccccc3)c3cc(N4CCCCC4C)c(F)cc3c2=O)c1 (stereo not drawn) 1.79%
COc1ccc(CNC(=O)Cn2c(=O)oc3cc(S(=O)(=O)N4CCCC4)ccc32)cc1 13.1%
CCCOc1ccc(C(=O)Nc2c(C(=O)c3ccc(C)cc3)oc3ccccc23)cc1 -26.2%
Cc1cc(C(F)F)n2nc(C(=O)Nc3ccc(F)c(Cl)c3)nc2n1 5.98%
CCc1nc2ccc(C(=O)N3CCN(c4ccc(Cl)cc4)CC3)cc2nc1CC -11.3%
Cc1ccc(Cl)cc1N1CCN(C(=O)c2ccc(C)c(-n3c(C)nc4cccnc43)c2)CC1 1.89%
CCCCc1ccc(C(=O)N/C(=C\c2ccc(C)cc2)C(=O)NC2CCCCC2)cc1 31.8%
O=C(CC1N=C2c3ccccc3N=C(SCc3ccccc3F)N2C1=O)NCc1cccs1 (stereo not drawn) -4.68%
COc1cccc(Nc2nc(-c3ccccc3)c3cc(C)ccc3n2)c1 -39.9%
Cc1cccc(CNC(=O)c2ccc(Cn3c(=O)c4cccn4c4cccnc43)cc2)c1 -12.7%
COc1cc(C2CC(=O)Nc3c2c(=O)nc2c(C)cccn32)cc(OC)c1OC (stereo not drawn) -0.0409%
CC1CCCCN1S(=O)(=O)c1ccc2c(c1)oc(=O)n2CC(=O)Nc1ccc(Cl)cc1 (stereo not drawn) 8%
CCCCNc1cc(C(=O)O)cc(S(N)(=O)=O)c1Oc1ccccc1 2.02% and 5.01%
Cc1ccc(NC(=O)C(Cc2ccccc2)NS(=O)(=O)c2cccc3nsnc23)c(C)c1 (stereo not drawn) -17.8%
CCOc1cc(C2c3c(-c4ccccc4O)n[nH]c3C(=O)N2CCc2ccccc2)ccc1O (stereo not drawn) -2.86%
CNC(=O)COc1ccc(Nc2nnc(-c3ccc(C)c(S(=O)(=O)NC(C)(C)C)c3)c3ccccc23)cc1 -23.7%
COc1cc(NC(=O)Cn2cc(S(=O)(=O)c3ccccc3)c(=O)c3ccccc32)cc(OC)c1 -6.84%
COc1ccc(-c2cc(C(F)(F)F)nc(SCCC(=O)Nc3c(C)cccc3C)n2)cc1 -12.9%
COc1cccc(-c2ccc3c(N)c(C(=O)Nc4ccc(C)c(F)c4)sc3n2)c1 0.822%
CCc1ccc(C2c3c(oc4ccc(C)cc4c3=O)C(=O)N2c2nc(C)c(C)s2)cc1 (stereo not drawn) 5.96%
O=C(NCC12CC3CC(CC(C3)C1)C2)c1cc2nc(-c3ccc(F)cc3)cc(C(F)(F)F)n2n1 0.192%
O=C(Nc1ccc(F)cc1F)c1ccc(-n2cnnc2)cc1 -11.4%
Cc1ccc(OCC(=O)Nc2ccc(C(=O)OCc3cc(=O)n4c(C)csc4n3)cc2)cc1 -5.32%
COc1ccc(-c2onc(C)c2C)cc1S(=O)(=O)NC1CCC(C)CC1 (stereo not drawn) 11.9%
Cc1cccc(NC(=O)CSc2cc(C)c3ccccc3n2)c1 6.36%
Cc1cc(-n2c(C)nc3ccccc3c2=O)ccc1NC(=O)c1cccc([N+](=O)[O-])c1 45.2%
Cc1ccc(-n2c(=O)c3oc4ccccc4c3n(CC(=O)Nc3ccccc3)c2=O)cc1C -22%
CC(C)CNC(=O)C1=CC(c2ccc3c(c2)OCO3)=NS(=O)(=O)N1C -0.0228%
Cc1ccc(Cn2c(CNC(=O)c3ccccc3Br)nc3cccnc32)cc1 -19.8%
CCc1ccccc1NC(=O)Cc1c(C(=O)O)[nH]c2ccc(Cl)cc12 8.67%
COc1ccc(N2CCN(C(=O)Nc3cccc(C(F)(F)F)c3)CC2)cc1 27.8%
Oc1c(C(c2ccccc2)N2CCN(c3ccccc3)CC2)sc2nc(-c3ccco3)nn12 (stereo not drawn) -1.51%
O=C(NCCc1ccccc1)C(=O)Nc1cccc(Br)c1 1.32%
CCOC(=O)c1c(NC(=O)c2cc(-c3ccc(OC)cc3)on2)sc(C)c1C -9.06%
O=C(CSc1nc(=O)[nH]c2c1CCC2)NCc1ccccc1 -4.63%
CO/N=C(\C(=O)O)c1csc(NC(=O)CCl)n1 -45.9%
Cn1c(CCNC(=O)c2ccco2)nc2cc(NC(=O)COc3ccc(Cl)cc3)ccc21 -8.74%
Cc1ccc(C(=O)COC(=O)CCC(=O)Nc2ccc(Oc3ccccc3)cc2)cc1C -11.7%
O=C1CC(c2ccc(Cl)cc2)N=C(NC(=O)c2ccccc2)N1 (stereo not drawn) -8.83%
COc1cccc(NC(=O)CCNC(=O)Cn2ccc3ccccc3c2=O)c1 10.5%

activation, active:
CCN1CCC(N(Cc2ccc3c(c2)OCO3)C(=O)Nc2ccc(Br)c(C)c2)CC1 80%
CCOc1ccc(NS(=O)(=O)c2ccc(NC(=O)N3CCCC3)cc2)cc1 64.7%
CCN(CCCNC(=O)c1cc2cc3ccc(OC)cc3nc2s1)c1ccccc1 95.8%
